This is one part of the list. At the low end of the ranking the order means little.

In the assay the target is T1, GST-Rok-C97-191 (UniProt O34857).
T1 sequence: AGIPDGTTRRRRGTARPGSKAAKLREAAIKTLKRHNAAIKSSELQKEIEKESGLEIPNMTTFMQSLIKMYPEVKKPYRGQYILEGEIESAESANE
Kind of assay: protein binding microarray.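 Also: rank score from −0.5 (least bound) to 0.5 (best bound).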 The note with it: Rok is a gene silencer of Bacillus subtilis; high values mean tight binding; most listed sequences are background and not binding sites; double strand, one strand shown.
Regarding AAGTACCA, the binding signal turned out to be 0.264 E-score.

AATCAGTA had a binding signal of 0.281 E-score.

AACATGGG yielded a binding signal of 0.0274 E-score.

In turn, CGAAGAGA registered a binding signal of 0.082 E-score.

In turn, AGTCCCAT returned a binding signal of -0.0957 E-score.

For the sequence AGGCCTAC, the binding signal is 0.0721 E-score.

On to GAACTCTA, for which the binding signal is -0.0126 E-score.

Consider GGGAGCAA, for which the binding signal was -0.0719 E-score.

In turn, GCCTCCTA showed a binding signal of -0.232 E-score.

Sequence ACAGAAAA yielded a binding signal of -0.0493 E-score.

The sequence CCCAATAG had a binding signal of -0.0877 E-score.

In the case of CCAGCGAA, the binding signal was -0.117 E-score.

CATAAGGC displayed a binding signal of -0.107 E-score.

Sequence ATGTGACA came in with a binding signal of 0.135 E-score.

Take ACGCCCAC: the binding signal is -0.165 E-score.

As to CCAGTCAG, the binding signal is -0.257 E-score.

For the sequence GGATAAGA, the binding signal was -0.0139 E-score.

In turn, AGTGCAGG yielded a binding signal of -0.0563 E-score.

In the case of AAGTCGTA, the binding signal was 0.0446 E-score.

The sequence CACCTGCA yielded a binding signal of -0.0168 E-score.

Sequence ATGCATTA showed a binding signal of 0.0789 E-score.

Regarding GGCGAAAA, the binding signal came to 0.15 E-score.

With AAGGGTAT, the binding signal is -0.14 E-score.

The sequence TCATGACA had a binding signal of -0.00654 E-score.

Sequence AGCACTCA showed a binding signal of 0.041 E-score.

In turn, AATATTGA had a binding signal of 0.22 E-score.

Regarding CCCGATGC, the binding signal was -0.208 E-score.

Take GATCATAA: the binding signal stood at 0.0823 E-score.

For the sequence GATAGTAA, the binding signal amounted to 0.367 E-score.

In turn, AACGTCCT registered a binding signal of -0.274 E-score.

As for GCAACCCC, the binding signal was -0.387 E-score.

The sequence AGGACCAT had a binding signal of -0.0969 E-score.

CTATAACA yielded a binding signal of 0.22 E-score.

In the case of ACGCAGCT, the binding signal is -0.0346 E-score.

In turn, GGCAGAAC registered a binding signal of -0.0311 E-score.

In turn, CAAGCCGC showed a binding signal of -0.148 E-score.

For the sequence CGGGTAGC, the binding signal is -0.292 E-score.

On to CTGCCTCA, for which the binding signal was -0.184 E-score.

As to CGCGATAC, the binding signal is 0.147 E-score.

Sequence AAATATCG returned a binding signal of 0.314 E-score.

As for ACTACAGA, the binding signal came out at 0.204 E-score.

Consider ATGCACCC, for which the binding signal was -0.123 E-score.

CCATGTAG came in with a binding signal of 0.213 E-score.

The sequence ATCAGGCA came in with a binding signal of -0.0512 E-score.

Take CTGTGACC: the binding signal stood at 0.0922 E-score.

As to GAATCGAA, the binding signal stood at 5.25e-05 E-score.

CACAGCAA had a binding signal of 0.108 E-score.

Sequence ACAGATCC displayed a binding signal of -0.12 E-score.

In turn, CGTGGGTC gave a binding signal of -0.284 E-score.

In turn, AGACTTTG returned a binding signal of -0.0954 E-score.

As to AAGGTTCC, the binding signal was -0.282 E-score.

In turn, AGCGAGCT returned a binding signal of -0.0556 E-score.

CTTAGCAA: the binding signal turned out to be 0.0557 E-score.

ATACAGAG came in with a binding signal of 0.0129 E-score.

For the sequence TATCGAAA, the binding signal amounted to 0.16 E-score.

GAATCATA gave a binding signal of 0.126 E-score.

Take CCCAGACG: the binding signal was -0.219 E-score.

ATGTAGTC registered a binding signal of 0.156 E-score.

For the sequence GATAGGGA, the binding signal is -0.0661 E-score.

Consider AGTGACGG, for which the binding signal was 0.0589 E-score.

GCGGGGCA: the binding signal was -0.222 E-score.

Sequence GCACCTCA returned a binding signal of -0.0836 E-score.

As to TACTGCCA, the binding signal was -0.0971 E-score.

The sequence CCAAGGCA displayed a binding signal of -0.209 E-score.

CATCTACC had a binding signal of 0.222 E-score.

The sequence AACCTCTC showed a binding signal of 0.0396 E-score.

CTTCAACC had a binding signal of -0.257 E-score.

The sequence ATAGGGAG gave a binding signal of -0.224 E-score.

For ACGCTTTA, the binding signal was -0.0326 E-score.

CTCCTCGC: the binding signal was -0.244 E-score.

As to ACTGAAAC, the binding signal is -0.205 E-score.

Sequence GCCCATAA yielded a binding signal of -0.116 E-score.

The sequence CCACAGGG returned a binding signal of -0.288 E-score.

AGAGTTAC had a binding signal of 0.089 E-score.

CAATGCGG gave a binding signal of -0.0545 E-score.

In turn, ACTAATGA showed a binding signal of 0.0758 E-score.

TCCGACCA showed a binding signal of -0.0488 E-score.

In turn, CCTCGGTA had a binding signal of -0.0315 E-score.

AAACGTAA registered a binding signal of 0.167 E-score.

Turning to CCCGAAAC, the binding signal is -0.179 E-score.

CCTGTGTA showed a binding signal of -0.0412 E-score.

CGAGCACG gave a binding signal of -0.235 E-score.

As for AGGGATAC, the binding signal was -0.0149 E-score.

As to AGATTTGG, the binding signal was found to be 0.216 E-score.

Sequence ACCCGATG gave a binding signal of -0.196 E-score.

As to GTGAAAAC, the binding signal came out at 0.0517 E-score.

TCCAGGGA had a binding signal of -0.144 E-score.

With GACTATGC, the binding signal is -0.181 E-score.

Take ACCGTTAA: the binding signal was 0.2 E-score.

Turning to CACCAGAC, the binding signal is -0.152 E-score.

Turning to AAGACCGT, the binding signal was -0.0627 E-score.

CTACCTCA had a binding signal of 0.195 E-score.

As to CGCCAGGA, the binding signal was -0.19 E-score.

ATTCTGTA had a binding signal of 0.128 E-score.

CCCCTAGC: the binding signal is -0.348 E-score.

Sequence TTCTGCAA returned a binding signal of -0.0159 E-score.

Turning to AGCGACAG, the binding signal was -0.107 E-score.

For the sequence CGCGATGA, the binding signal is -0.0419 E-score.

In turn, ATTAGAGA yielded a binding signal of 0.0812 E-score.

CGCAAGAC yielded a binding signal of -0.0568 E-score.

On to ACTCGCTC, for which the binding signal is -0.0387 E-score.

Regarding AAAATACG, the binding signal is 0.266 E-score.

AACACGTT: the binding signal is -0.147 E-score.

Consider GGAGGGTA, for which the binding signal was -0.0681 E-score.

As to CTTGGCTA, the binding signal is -0.0782 E-score.

As to GCACCAAA, the binding signal is -0.0766 E-score.

Regarding CATATGAG, the binding signal is -0.0118 E-score.

AACTATCG: the binding signal was found to be 0.273 E-score.

As to AAGATAAC, the binding signal was 0.131 E-score.

CAACTCTG: the binding signal was -0.0947 E-score.

Sequence AATAGCAC yielded a binding signal of 0.018 E-score.

With GACTGGCA, the binding signal was -0.264 E-score.

For AGAGTTTG, the binding signal was found to be 0.0726 E-score.

For AAGCCATG, the binding signal is -0.16 E-score.

As for TAGACCTA, the binding signal came out at 0.145 E-score.

ACCAGCAA gave a binding signal of -0.0779 E-score.

GGACCCGA yielded a binding signal of -0.216 E-score.

CTGCTAGC had a binding signal of -0.11 E-score.

The sequence ATGGTTCG had a binding signal of 0.0377 E-score.

For the sequence GATGGGGC, the binding signal is -0.242 E-score.

With CTAGAGAG, the binding signal is -0.13 E-score.

AAGCATCG showed a binding signal of -0.0441 E-score.

The sequence CAGCACGA registered a binding signal of 0.00213 E-score.

Sequence ACGGTAGG gave a binding signal of 0.164 E-score.

With GGAGGCCC, the binding signal was -0.322 E-score.

GCCCCAAC had a binding signal of -0.271 E-score.

The sequence CACAGAAG showed a binding signal of 0.035 E-score.

GGAGTACA: the binding signal was -0.00366 E-score.

With GACGGTAC, the binding signal is -0.0377 E-score.

For CATTGAAG, the binding signal was -0.104 E-score.

CCGTCTGC showed a binding signal of -0.105 E-score.

For AGATTCAG, the binding signal was -0.0728 E-score.

On to AACAGGGA, for which the binding signal was -0.16 E-score.

Consider CGCCTGCA, for which the binding signal is -0.227 E-score.

In turn, CCTTCCAA showed a binding signal of -0.186 E-score.

Sequence CGCTTTTC had a binding signal of 0.129 E-score.

ATGGTTTA returned a binding signal of 0.28 E-score.

CCAGAAGC came in with a binding signal of -0.131 E-score.

Turning to GGTATTGA, the binding signal is 0.111 E-score.

Sequence GATATAAC had a binding signal of 0.297 E-score.

Turning to CCTAAACG, the binding signal stood at 0.000713 E-score.

Sequence GGATAGCC showed a binding signal of -0.209 E-score.

In the case of CGTCCGCA, the binding signal was -0.208 E-score.

Regarding AGGTTGAT, the binding signal was 0.0277 E-score.

In turn, GATCGACC had a binding signal of 0.0427 E-score.

The sequence AGGCACGC showed a binding signal of -0.274 E-score.

As for GACGAGTA, the binding signal is 0.0943 E-score.

Sequence CACCGTCG registered a binding signal of -0.167 E-score.

In turn, CGGGGCAG had a binding signal of -0.373 E-score.

Sequence ACATTTCA showed a binding signal of 0.221 E-score.

CAGGCTAC yielded a binding signal of -0.192 E-score.

Sequence GAGCCTGA yielded a binding signal of -0.22 E-score.

In turn, CACCGTAA yielded a binding signal of 0.106 E-score.

ACTCCACT came in with a binding signal of -0.0722 E-score.

In turn, GTGGTGCA gave a binding signal of -0.159 E-score.

Consider GCGTTGTA, for which the binding signal turned out to be 0.0831 E-score.

Sequence CCGATGAG gave a binding signal of -0.169 E-score.

With GATACCCA, the binding signal is -0.014 E-score.

Regarding AGTCCCAA, the binding signal is -0.0257 E-score.

Consider GCGTGTAA, for which the binding signal amounted to 0.0219 E-score.

With GCCACTAA, the binding signal is -0.0379 E-score.

The sequence ACTTATCT returned a binding signal of 0.221 E-score.

Take GGTGCCAA: the binding signal stood at 0.00719 E-score.

GAGCACCC came in with a binding signal of -0.0764 E-score.

The sequence ACGGATCC came in with a binding signal of -0.15 E-score.

Consider AGACCTCA, for which the binding signal is -0.134 E-score.

In the case of ATGCGAAA, the binding signal is 0.23 E-score.

Take ACGGTCCA: the binding signal was -0.176 E-score.

As for AATGGCGC, the binding signal was determined as 0.0882 E-score.

For the sequence AATTCCAG, the binding signal came out at 0.162 E-score.

In the case of TATGCTAA, the binding signal is 0.126 E-score.

GCCATGAC gave a binding signal of -0.257 E-score.

Values taken from paper PMC6212790.
